From patent publication US10064842B2, “KCNQ channels as therapeutic targets” (Washington University, priority 2013, dated 2018)
Values joined by “and” are separate entries in the source; they are usually repeats but may differ in a detail not shown here. Equal values may be shown once.

Assays:
[1] = target: KCNQ1+KCNE1 (IKs) WT (Homo sapiens, UniProt P51787); test: IKs currents in inside-out membrane patches from Xenopus oocytes at various intracellular ATP/nucleotide concentrations; details: for ability of nucleotide to prevent IKs current run-down: 1.5 mM nucleotide in intracellular solution, inside-out patch
[2] = target: T1, KCNQ1 (Homo sapiens, UniProt P51787); test: C4 on KCNQ1 channel currents, step from -80 to +40 mV; assay type: cell-based
[3] = target: T2, IKs channel (KCNQ1 and KCNE1) (Homo sapiens, UniProt P51787); test: C28 on IKs channels: current and G-V relation; assay type: cell-based
[4] = target: KCNQ2/3 (M-channels) (Homo sapiens, UniProt O43525+O43526); test: C28 on M-channels (KCNQ2/3): current and G-V relation; assay type: cell-based
[5] = target: T1, KCNQ1; test: C28 on KCNQ1 channels: current and G-V relation; assay type: cell-based
[6] = system: guinea pig ventricular myocytes (IKs); test: Action potentials and IKs in guinea pig ventricular myocytes at different internal ATP, with and without chromanol 293b; assay type: cell-based
[7] = target: Q357R IKs (Q357R KCNQ1 co-expressed with KCNE1) (Homo sapiens, UniProt P51787, Q357R); test: ATP dependence of Q357R IKs in inside-out patches; assay type: cell-based
[8] = system: KCNQ2/KCNQ3; test: Current after inside-out patch excision without intracellular ATP, KCNQ2/KCNQ3; assay type: cell-based; details: co-expression of KCNQ2 and KCNQ3
[9] = target: psWT/L353K Kv7.1 (Homo sapiens, UniProt P51787, C214A/C331A/G219C/L353K); test: Constitutive currents of locked-open psWT/L353K Kv7.1 channels; assay type: cell-based
[10] = system: Kv7.1 E1R double mutants; test: Rescued currents of E1R/S4 double mutant Kv7.1 channels; assay type: cell-based
[11] = target: T2, IKs channel (KCNQ1 and KCNE1); test: C29 inhibition of channel current induced by +60 mV pulse; assay type: cell-based; details: 100 μM C29, +60 mV pulse

Compound: Nc1ncnc2c1ncn2C1OC(COP(=O)(O)OP(=O)(O)NP(=O)(O)O)C(O)C1O (stereo not drawn) [AMP-PNP, 5′-adenylyl-β-γ-imidodiphosphate]
- ability of nucleotide to prevent IKs current run-down [1]: sustained channel function

Compound: O=[N+]([O-])c1ccc(Nc2ccc(Nc3ccccc3)c(S(=O)(=O)[O-])c2)c([N+](=O)[O-])c1.[Na+] [C4, sodium; 2-anilino-5-(2,4-dinitroanilino)benzenesulfonate]
- effect on KCNQ1 channel activity [2]: modulates KCNQ1 channel activity

Compound: O=C1c2ccccc2C(=O)c2c(Nc3cccc(S(=O)(=O)O)c3)c(Nc3ccc(S(=O)(=O)O)cc3)cc(O)c21 [C28, disodium;3-[[4-hydroxy-9,10-dioxo-2-(4-sulfonatoanilino)anthracen-1-yl]amino]benzenesulfonate]
- V1/2 of G-V relation (Boltzmann fit) ([3]; 10 μM C28): −32.2±1.0 mV
- slope of G-V relation ([3]; 10 μM C28): 18.9±1.1 mV
- effect on current amplitudes ([3]; IKs): increases current amplitudes
- EC50 ([3]; IKs channels, read-out: EC50 of the change in V1/2 (V1/2 control−V1/2C28)): 12.7 ± 11.4 µM
- direction of G-V shift ([3]; dose response): shifts IKs in the negative direction in a dose dependent manner
- Hill coefficient of the change in V1/2 ([4]; KCNQ2/3): 0.92±0.06
- EC50 ([4]; KCNQ2/3, read-out: EC50 of the change in V1/2 (V1/2 control−V1/2C28)): 4.4 ± 0.3 µM
- effect on channel current ([4]; M-currents measured at +40 mV): increases channel current
- V1/2 of G-V relation ([4]; in the presence of C28): −45.9±0.4 mV
- slope of G-V relation ([4]; in the presence of C28): 8.21±0.37 mV
- V1/2 of G-V relation (Boltzmann fit) ([5]; 10 μM C28): −86.3±1.2 mV
- slope of G-V relation ([5]; 10 μM C28): 14.8±1.2 mV
- effect on current amplitudes ([5]; KCNQ1): increases current amplitudes
- EC50 ([5]; KCNQ1, read-out: EC50 of the change in V1/2 (V1/2 control−V1/2C28)): 15.8 ± 8.5 µM

Compound: Nc1ncnc2c1ncn2[C@@H]1O[C@H](COP(=O)(O)OP(=O)(O)OP(=O)(O)O)[C@@H](O)[C@H]1O [ATP, adenosine-5′-triphosphate]
- ability of nucleotide to prevent IKs current run-down [1]: sustained channel function
- EC50 ([1]; EC50 of ATP dose response (steady state current amplitude), WT IKs, inside-out patches, Hill equation fit): 1700 µM and 1660 µM
- Hill coefficient of ATP dose response ([1]; WT IKs): 1
- V1/2 of G-V relation (Boltzmann fit) ([1]; WT IKs, 0.5 mM ATP): 25.2±2.5 mV
- slope factor of G-V relation ([1]; WT IKs, 0.5 mM ATP): 25.6±1.4
- V1/2 of G-V relation (Boltzmann fit) ([1]; WT IKs, 20 mM ATP): 23.6±3.6 mV
- slope factor of G-V relation ([1]; WT IKs, 20 mM ATP): 27.8±2.2
- effect on ventricular action potential duration ([6]; 10 mM vs 3 mM ATP in patch pipette solution): shortens the ventricular action potential duration
- EC50 [7]: 9600 µM
- Hill coefficient of ATP dose response ([7]; Q357R IKs): 1.1
- V1/2 of G-V relation (Boltzmann fit) ([7]; Q357R IKs, 0.5 mM ATP): 53.2±2.5 mV
- slope factor of G-V relation ([7]; Q357R IKs, 0.5 mM ATP): 27.3±1.3
- V1/2 of G-V relation (Boltzmann fit) ([7]; Q357R IKs, 5 mM ATP): 28.8±2.6 mV
- slope factor of G-V relation ([7]; Q357R IKs, 5 mM ATP): 26.4±2.1
- increase of current amplitude ([7]; Q357R IKs, high concentration of ATP, inside-out patch): 3- to 5 fold
- ATP requirement for channel function [8]: do not require ATP for function

Compound: Nc1nc2c(ncn2[C@@H]2O[C@H](COP(=O)(O)OP(=O)(O)OP(=O)(O)O)[C@@H](O)[C@H]2O)c(=O)[nH]1 [GTP]
- ability of nucleotide to prevent IKs current run-down [1]: sustained channel function

Compound: CCS(=O)(=O)N(C)[C@H]1c2cc(C#N)ccc2OC(C)(C)[C@@H]1O (racemic) [chromanol 293B]
- effect on psWT/L353K constitutive currents [9]: reduced
- effect of chromanol 293b on action potential ([6]; 10 mM vs 3 mM internal ATP): greater effect
- effect on rescued constitutively open channel currents [10]: blocked

Compound: Nc1ncnc2c1ncn2[C@@H]1O[C@H](COP(=O)(O)OP(=O)(O)O)[C@@H](O)[C@H]1O [ADP]
- ability of nucleotide to prevent IKs current run-down [1]: rundown of IKs currents became progressively faster

Compound: phosphatidylinositol 4,5-bisphosphate [PIP2]
- saturation of IKs channel activation ([1]; 5 μM PIP2): 50%
- saturation of IKs channel activation ([1]; 100 μM PIP2): 100%

Compound: Cc1ccc(Oc2ccc(N3C(=O)c4ccc(C(=O)O)cc4C3=O)cc2)cc1C [C29, 2-[4-(3,4-Dimethylphenoxy)phenyl]-1,3-dioxoisoindoline-5-carboxylic acid]
- inhibition of channel current, IKs versus KCNQ1 alone [11]: inhibits IKs channel current more effectively than KCNQ1 alone
